Data taken from the supplement of paper PMC4967469.
pIC50: −log10 of the molar value. By IC50 is meant the dose at which the fit gives 50% viability; a fit beyond the top or the lowest dose is shown as a bound at that dose. AUC is the area under the same curve over the 256-fold range up to the top dose, as a fraction; the more sensitive the line, the further below 1. For part of these data: Any top dose called inferred is not printed in the source and was worked back from the curve model.

Legend:
Test in all cases: Viability of human cancer cell lines after 72 h of drug (GDSC screen)
Salubrinal = compound: O=C(/C=C/c1ccccc1)NC(NC(=S)Nc1cccc2cccnc12)C(Cl)(Cl)Cl [Salubrinal]; details: top dose 16 µM; top dose inferred
Experimental: (§1)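 Human cancer cell lines in 384-well plates, medium with 10% serum, drug for 72 h over a 256-fold dose range (nine 2-fold or five 4-fold steps up to the top dose). Adherent lines were fixed and stained with the nucleic acid dye Syto60, suspension lines read with resazurin; signal relative to control wells, capped at 0 and 100%. One two-parameter sigmoid per drug and line, fitted in a mixed model over all curves with the slope shared within a line.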

GW843682X = compound: COc1cc2ncn(-c3cc(OCc4ccccc4C(F)(F)F)c(C(N)=O)s3)c2cc1OC [GW843682X]; details: top dose 0.256 µM
Experimental: as §1

PIK-93 = compound: CC(=O)Nc1nc(C)c(-c2ccc(Cl)c(S(=O)(=O)NCCO)c2)s1 [PIK-93]; details: top dose 20 µM
Experimental: as §1

piperlongumine = compound: COc1cc(/C=C/C(=O)N2CCC=CC2=O)cc(OC)c1OC [piperlongumine]; details: top dose 10 µM
Experimental: as §1

ABT-263 = compound: CC1(C)CCC(c2ccc(Cl)cc2)=C(CN2CCN(c3ccc(C(=O)NS(=O)(=O)c4ccc(N[C@H](CCN5CCOCC5)CSc5ccccc5)c(S(=O)(=O)C(F)(F)F)c4)cc3)CC2)C1 [ABT-263]; details: top dose 2 µM; top dose inferred
Experimental: as §1

GW 441756 = compound: Cn1cc(/C=C2\C(=O)Nc3cccnc32)c2ccccc21 [GW 441756]; details: top dose 2 µM; top dose inferred
Experimental: as §1

Cell Line	AUC (Salubrinal)	pIC50 (Salubrinal)	AUC (GW843682X)	pIC50 (GW843682X)	AUC (PIK-93)	pIC50 (PIK-93)	AUC (piperlongumine)	pIC50 (piperlongumine)	AUC (ABT-263)	pIC50 (ABT-263)	AUC (GW 441756)	pIC50 (GW 441756)
LS-513 (large intestine, adherent)	0.934	< 4.80	0.825	6.79	0.802	4.98	0.798	5.30	0.975	< 5.70	0.97	< 5.70
LS-1034 (large intestine, adherent)	0.957	< 4.80	0.65	7.36	0.752	5.14	0.86	5.00	0.983	< 5.70	0.985	< 5.70
LU-134-A (small cell lung carcinoma, suspension)	0.979	< 4.80	0.666	7.32	0.793	5.01	0.812	5.24	0.6	6.62	0.98	< 5.70
LU-139 (small cell lung carcinoma, suspension)	0.869	< 4.80	0.648	7.33	0.685	5.32	0.776	5.29	0.582	6.65	0.982	< 5.70
LU-165 (small cell lung carcinoma, suspension)	0.975	< 4.80	0.929	< 6.59	0.861	< 4.70	0.831	5.13	0.976	< 5.70	0.987	< 5.70
LXF-289 (lung adenocarcinoma, adherent)	0.858	4.89	0.478	7.86	0.938	< 4.70	0.779	5.40	0.958	< 5.70	0.919	< 5.70
MC116 (B-cell lymphoma, suspension)	0.767	5.36	0.657	7.42	0.508	5.89	0.878	5.29	0.999	< 5.70	0.999	< 5.70
MC-CAR (haematopoietic neoplasm, suspension)	0.931	< 4.80	0.68	7.32	0.287	6.47	0.753	5.52	0.23	7.64	0.989	< 5.70
MDST8 (large intestine, adherent)	0.98	< 4.80	0.91	< 6.59	0.7	5.34	0.777	5.40	0.59	6.66	0.977	< 5.70
ME-1 (acute myeloid leukaemia, suspension)	0.969	< 4.80	0.881	< 6.59	0.896	< 4.70	0.845	5.10	0.413	7.15	0.989	< 5.70
MEG-01 (chronic myeloid leukaemia, suspension)	0.908	< 4.80	0.667	7.34	0.85	4.86	0.732	5.56	0.618	6.59	0.986	< 5.70
MFH-ino (soft tissue, adherent)	0.881	< 4.80	0.59	7.53	0.879	< 4.70	0.706	5.58	0.972	< 5.70	0.848	5.72
MFM-223 (breast, adherent)	0.989	< 4.80	0.974	< 6.59	0.892	< 4.70	0.69	5.67	0.911	< 5.70	0.89	< 5.70
MHH-PREB-1 (B-cell leukaemia, suspension)	0.79	5.20	0.538	7.70	0.375	6.23	0.623	5.88	0.989	< 5.70	0.986	< 5.70
ML-2 (acute myeloid leukaemia, suspension)	0.76	5.30	0.38	8.11	0.324	6.37	0.816	5.32	0.456	7.02	0.99	< 5.70
MLMA (hairy cell leukaemia, semi-adherent)	0.914	< 4.80	0.636	7.42	0.227	6.70	0.637	5.82	0.866	5.74	0.982	< 5.70
MMAC-SF (melanoma, adherent)	0.946	< 4.80	0.934	< 6.59	0.983	< 4.70	0.742	5.49	0.93	< 5.70	0.974	< 5.70
MN-60 (B-cell leukaemia, suspension)	0.988	< 4.80	0.963	< 6.59	0.8	5.00	0.89	< 5.00	0.988	< 5.70	0.985	< 5.70
MOLM-13 (acute myeloid leukaemia, suspension)	0.87	4.88	0.473	7.87	0.288	6.48	0.703	5.65	0.769	6.15	0.834	5.93
MOLP-8 (myeloma, suspension)	0.862	4.89	0.706	7.23	0.268	6.55	0.655	5.78	0.933	< 5.70	0.984	< 5.70
MOLT-13 (T-cell lymphoblastic leukaemia, suspension)	0.906	< 4.80	0.401	8.05	0.763	5.19	0.773	5.47	0.382	7.21	0.99	< 5.70
